{"source": "the supplement of paper PMC8728848", "binders": {"B1": {"name": "rCnSL-proB (Clitocybe nebularis) (protein)", "chain": "PTFSPIFALLAFLPFGTLASLLPQTQLVFRINPNLPGPNDVFVGYRGTNNVVGAIYERDGIKDTPMNNGADAELGPGSYITDDLFTAQIFASGSAGNNPGTTATVCKIYADGVQWRGAPKGYLPVLYFGNGQAAEQTRQTYLQGLDIPGTAIRFANLAKTPNQGPTAPRQMVVPSGGLQTLLKASCFPANHAALPQVLSYFNVRAALPPGWNIRTGPEFPNWTN"}}, "test_in_all_cases": "glycan array binding signal (z-score within array); higher = stronger binding", "details_in_all_cases": "glycan notation: IUPAC condensed, linker removed", "key": {"[1]": {"target": "Gal(b1-4)GlcNAc(b1-3)Gal(b1-4)GlcNAc(b1-3)Gal(b1-4)GlcNAc(b1-3)Gal(b1-4)GlcNAc(b1-2)Man(a1-3)[Gal(b1-4)GlcNAc(b1-3)Gal(b1-4)GlcNAc(b1-3)Gal(b1-4)GlcNAc(b1-3)Gal(b1-4)GlcNAc(b1-2)Man(a1-6)]Man(b1-4)GlcNAc(b1-4)[Fuc(a1-6)]GlcNAc", "method_in_brief": "(§1)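 Arrays were curated from the Consortium for Functional Glycomics database, 3228 in total, and kept only where the protein sequence was available. Binding is expressed as a within-array Z-score. This score was averaged across arrays of the same protein sequence at different concentrations or buffers and across linkers, and negative values can be read as non-binding.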"}, "[2]": {"target": "Gal(b1-4)GlcNAc(b1-3)Gal(b1-4)GlcNAc(b1-3)Gal(b1-4)GlcNAc(b1-3)Gal(b1-4)GlcNAc(b1-2)[Gal(b1-4)GlcNAc(b1-3)Gal(b1-4)GlcNAc(b1-3)Gal(b1-4)GlcNAc(b1-3)Gal(b1-4)GlcNAc(b1-6)]Man(a1-6)[Gal(b1-4)GlcNAc(b1-3)Gal(b1-4)GlcNAc(b1-3)Gal(b1-4)GlcNAc(b1-3)Gal(b1-4)GlcNAc(b1-2)Man(a1-3)]Man(b1-4)GlcNAc(b1-4)[Fuc(a1-6)]GlcNAc", "method_in_brief": "as §1"}, "[3]": {"target": "Gal(b1-4)GlcNAc(b1-3)Gal(b1-4)GlcNAc(b1-3)Gal(b1-4)GlcNAc(b1-3)Gal(b1-4)GlcNAc(b1-3)Gal(b1-4)GlcNAc(b1-2)Man(a1-3)[Gal(b1-4)GlcNAc(b1-3)Gal(b1-4)GlcNAc(b1-3)Gal(b1-4)GlcNAc(b1-3)Gal(b1-4)GlcNAc(b1-3)Gal(b1-4)GlcNAc(b1-2)Man(a1-6)]Man(b1-4)GlcNAc(b1-4)GlcNAc", "method_in_brief": "as §1"}, "[4]": {"target": "Gal(b1-4)GlcNAc(b1-3)Gal(b1-4)GlcNAc(b1-3)Gal(b1-4)GlcNAc(b1-3)Gal(b1-4)GlcNAc(b1-3)Gal(b1-4)GlcNAc(b1-2)Man(a1-3)[Gal(b1-4)GlcNAc(b1-3)Gal(b1-4)GlcNAc(b1-3)Gal(b1-4)GlcNAc(b1-3)Gal(b1-4)GlcNAc(b1-3)Gal(b1-4)GlcNAc(b1-2)Man(a1-6)]Man(b1-4)GlcNAc(b1-4)[Fuc(a1-6)]GlcNAc", "method_in_brief": "as §1"}, "[5]": {"target": "Gal(b1-4)GlcNAc(b1-3)Gal(b1-4)GlcNAc(b1-3)Gal(b1-4)GlcNAc(b1-3)Gal(b1-4)GlcNAc(b1-3)Gal(b1-4)GlcNAc(b1-2)[Gal(b1-4)GlcNAc(b1-3)Gal(b1-4)GlcNAc(b1-3)Gal(b1-4)GlcNAc(b1-3)Gal(b1-4)GlcNAc(b1-3)Gal(b1-4)GlcNAc(b1-6)]Man(a1-6)[Gal(b1-4)GlcNAc(b1-3)Gal(b1-4)GlcNAc(b1-3)Gal(b1-4)GlcNAc(b1-3)Gal(b1-4)GlcNAc(b1-3)Gal(b1-4)GlcNAc(b1-2)Man(a1-3)]Man(b1-4)GlcNAc(b1-4)[Fuc(a1-6)]GlcNAc", "method_in_brief": "as §1"}, "[6]": {"target": "Gal(b1-4)GlcNAc(b1-3)Gal(b1-4)GlcNAc(b1-3)Gal(b1-4)GlcNAc(b1-3)Gal(b1-4)GlcNAc(b1-3)Gal(b1-4)GlcNAc(b1-3)Gal(b1-4)GlcNAc(b1-2)Man(a1-3)[Gal(b1-4)GlcNAc(b1-3)Gal(b1-4)GlcNAc(b1-3)Gal(b1-4)GlcNAc(b1-3)Gal(b1-4)GlcNAc(b1-3)Gal(b1-4)GlcNAc(b1-3)Gal(b1-4)GlcNAc(b1-2)Man(a1-6)]Man(b1-4)GlcNAc(b1-4)GlcNAc", "method_in_brief": "as §1"}, "[7]": {"target": "Gal(b1-4)GlcNAc(b1-3)Gal(b1-4)GlcNAc(b1-3)GalNAc", "method_in_brief": "as §1"}, "[8]": {"target": "Gal(b1-4)GlcNAc(b1-3)Gal(b1-4)GlcNAc(b1-3)[Gal(b1-4)GlcNAc(b1-3)Gal(b1-4)GlcNAc(b1-6)]GalNAc", "method_in_brief": "as §1"}, "[9]": {"target": "Gal(b1-4)GlcNAc(b1-3)Gal(b1-4)GlcNAc(b1-6)[Gal(b1-3)]GalNAc", "method_in_brief": "as §1"}, "[10]": {"target": "Gal(b1-4)GlcNAc(b1-3)Gal(b1-4)[Fuc(a1-3)]GlcNAc(b1-3)Gal(b1-4)[Fuc(a1-3)]GlcNAc", "method_in_brief": "as §1"}, "[11]": {"target": "Gal(b1-4)GlcNAc(b1-3)GalNAc", "method_in_brief": "as §1"}, "[12]": {"target": "Gal(b1-4)GlcNAc(b1-3)[Fuc(a1-3)GlcNAc(b1-6)]Gal(b1-4)Glc", "method_in_brief": "as §1"}, "[13]": {"target": "Gal(b1-4)GlcNAc(b1-3)[Gal(b1-4)GlcNAc(b1-6)]Gal(b1-4)GlcNAc", "method_in_brief": "as §1"}, "[14]": {"target": "Gal(b1-4)GlcNAc(b1-3)[GlcNAc(b1-6)]Gal(b1-4)GlcNAc", "method_in_brief": "as §1"}, "[15]": {"target": "Gal(b1-4)GlcNAc(b1-6)Gal(b1-4)GlcNAc", "method_in_brief": "as §1"}, "[16]": {"target": "Gal(b1-4)GlcNAc(b1-6)GalNAc", "method_in_brief": "as §1"}, "[17]": {"target": "Gal(b1-4)GlcNAc(b1-6)[Gal(b1-3)]GalNAc", "method_in_brief": "as §1"}, "[18]": {"target": "Gal(b1-4)GlcNAc(b1-6)[Gal(b1-4)GlcNAc(b1-3)]GalNAc", "method_in_brief": "as §1"}, "Gal(b1-4)GlcNAc6P": {"target": "Gal(b1-4)GlcNAc6P", "method_in_brief": "as §1"}, "Gal(b1-6)Gal": {"target": "Gal(b1-6)Gal", "method_in_brief": "as §1"}, "Gal3S(b1-3)GalNAc": {"target": "Gal3S(b1-3)GalNAc", "method_in_brief": "as §1"}, "Gal3S(b1-3)GlcNAc": {"target": "Gal3S(b1-3)GlcNAc", "method_in_brief": "as §1"}, "[19]": {"target": "Gal3S(b1-3)[Fuc(a1-4)]GlcNAc", "method_in_brief": "as §1"}}, "note": "The list shows a part of the results.", "data": [{"binder": "B1", "values": [{"measurement": "glycan array binding signal (z-score)", "setting": "[1]", "result": 2.28}, {"measurement": "glycan array binding signal (z-score)", "setting": "[2]", "result": 1.91}, {"measurement": "glycan array binding signal (z-score)", "setting": "[3]", "result": 0.922}, {"measurement": "glycan array binding signal (z-score)", "setting": "[4]", "result": 0.375}, {"measurement": "glycan array binding signal (z-score)", "setting": "[5]", "result": 1.24}, {"measurement": "glycan array binding signal (z-score)", "setting": "[6]", "result": 3.08}, {"measurement": "glycan array binding signal (z-score)", "setting": "[7]", "result": 2.15}, {"measurement": "glycan array binding signal (z-score)", "setting": "[8]", "result": 4.08}, {"measurement": "glycan array binding signal (z-score)", "setting": "[9]", "result": 0.225}, {"measurement": "glycan array binding signal (z-score)", "setting": "[10]", "result": 0.088}, {"measurement": "glycan array binding signal (z-score)", "setting": "[11]", "result": 0.187}, {"measurement": "glycan array binding signal (z-score)", "setting": "[12]", "result": 0.474}, {"measurement": "glycan array binding signal (z-score)", "setting": "[13]", "result": -0.283}, {"measurement": "glycan array binding signal (z-score)", "setting": "[14]", "result": -0.395}, {"measurement": "glycan array binding signal (z-score)", "setting": "[15]", "result": -0.308}, {"measurement": "glycan array binding signal (z-score)", "setting": "[16]", "result": 0.179}, {"measurement": "glycan array binding signal (z-score)", "setting": "[17]", "result": -0.464}, {"measurement": "glycan array binding signal (z-score)", "setting": "[18]", "result": -0.173}, {"measurement": "glycan array binding signal (z-score)", "setting": "Gal(b1-4)GlcNAc6P", "result": -3.32}, {"measurement": "glycan array binding signal (z-score)", "setting": "Gal(b1-6)Gal", "result": -0.226}, {"measurement": "glycan array binding signal (z-score)", "setting": "Gal3S(b1-3)GalNAc", "result": -0.249}, {"measurement": "glycan array binding signal (z-score)", "setting": "Gal3S(b1-3)GlcNAc", "result": -0.565}, {"measurement": "glycan array binding signal (z-score)", "setting": "[19]", "result": -0.319}]}]}
